Test results taken from article PMC12820563, “FoxP3 forms a head-to-head dimer in vivo and stabilizes its multimerization on adjacent microsatellites”.
The other results are listed elsewhere or left out.

Each sequence was assayed against T1, MBP-FoxP1dN (Mus musculus, UniProt P58462 326-579) (assay: PD-seq (MBP pull-down with sequencing); 20 mM Tris-HCl pH 7.5, 100 mM NaCl, 1.5 mM MgCl2, 0.4 uM protein, 0.1 uM dsDNA library, 30 min, room temperature, amylose pull-down; high values mean tight binding). Details: protein: recombinant; tags: His6-MBP; chain copies: 2; dsDNA, one strand shown.
T1 sequence: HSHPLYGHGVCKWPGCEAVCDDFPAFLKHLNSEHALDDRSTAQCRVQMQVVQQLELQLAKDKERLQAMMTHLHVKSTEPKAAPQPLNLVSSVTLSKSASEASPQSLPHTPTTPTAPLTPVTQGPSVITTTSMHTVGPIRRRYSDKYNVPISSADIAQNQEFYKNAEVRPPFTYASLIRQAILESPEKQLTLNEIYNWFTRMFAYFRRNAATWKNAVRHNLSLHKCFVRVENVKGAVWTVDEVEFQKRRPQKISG
Outline: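 Mouse FoxP3 or FoxP1 fragment lacking the N-terminus, His6-MBP-tagged and expressed in E. coli, was incubated at 0.4 µM with 0.1 µM Klenow-filled degenerate double-stranded DNA library for 30 min at room temperature in Tris pH 7.5 buffer with NaCl and MgCl2. Complexes captured on amylose resin were washed three times and their DNA sequenced on Illumina. Binding is reads-per-million enrichment of pull-down over input, replicates pooled.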

| Sequence | binding signal |
| --- | --- |
| GATGATTGTTCTCCCAGCTGATGAATTATGCTACTCGAGTAAACAAATTTTCCTAATCTTTCTGTTCAAGCGCCATCTAC | 1.09 RPM ratio (pull-down/input) |
| GATGATTGTTCTCCCAGCTGATGAATTTCCGAATTCGAGTAAACAAATTTTCCTAATCTTTCTGTTCAAGCGCCATCTAC | 0.882 RPM ratio (pull-down/input) |
| GATGATTGTTCTCCCAGCTGATGAATTGCGACGATCGAGTAAACAAATTTTCCTAATCTTTCTGTTCAAGCGCCATCTAC | 0.98 RPM ratio (pull-down/input) |
| GATGATTGTTCTCCCAGCTGATGAATTATCCCGATCGAGTAAACAAATTTTCCTAATCTTTCTGTTCAAGCGCCATCTAC | 0.896 RPM ratio (pull-down/input) |
| GATGATTGTTCTCCCAGCTGATGAATTGCTTGTATCGAGTAAACAAATTTTCCTAATCTTTCTGTTCAAGCGCCATCTAC | 1.38 RPM ratio (pull-down/input) |
| GATGATTGTTCTCCCAGCTGATGAATTGATGCAATCGAGTAAACAAATTTTCCTAATCTTTCTGTTCAAGCGCCATCTAC | 1.96 RPM ratio (pull-down/input) |
| GATGATTGTTCTCCCAGCTGATGAATTAGGACACTCGAGTAAACAAATTTTCCTAATCTTTCTGTTCAAGCGCCATCTAC | 0.909 RPM ratio (pull-down/input) |
| GATGATTGTTCTCCCAGCTGATGAATTAGATGCTTCGAGTAAACAAATTTTCCTAATCTTTCTGTTCAAGCGCCATCTAC | 1.23 RPM ratio (pull-down/input) |
| GATGATTGTTCTCCCAGCTGATGAATTGGCCATCTCGAGTAAACAAATTTTCCTAATCTTTCTGTTCAAGCGCCATCTAC | 0.827 RPM ratio (pull-down/input) |
| GATGATTGTTCTCCCAGCTGATGAATTAAATTCGTCGAGTAAACAAATTTTCCTAATCTTTCTGTTCAAGCGCCATCTAC | 0.908 RPM ratio (pull-down/input) |
| GATGATTGTTCTCCCAGCTGATGAATTACCCGGTTCGAGTAAACAAATTTTCCTAATCTTTCTGTTCAAGCGCCATCTAC | 0.848 RPM ratio (pull-down/input) |
| GATGATTGTTCTCCCAGCTGATGAATTGCAATGGTCGAGTAAACAAATTTTCCTAATCTTTCTGTTCAAGCGCCATCTAC | 1.03 RPM ratio (pull-down/input) |
| GATGATTGTTCTCCCAGCTGATGAATTTTATTAATCGAGTAAACAAATTTTCCTAATCTTTCTGTTCAAGCGCCATCTAC | 1.07 RPM ratio (pull-down/input) |
| GATGATTGTTCTCCCAGCTGATGAATTAGAGCACTCGAGTAAACAAATTTTCCTAATCTTTCTGTTCAAGCGCCATCTAC | 0.84 RPM ratio (pull-down/input) |
| GATGATTGTTCTCCCAGCTGATGAATTAACAAAATCGAGTAAACAAATTTTCCTAATCTTTCTGTTCAAGCGCCATCTAC | 1.45 RPM ratio (pull-down/input) |
| GATGATTGTTCTCCCAGCTGATGAATTCATCAAGTCGAGTAAACAAATTTTCCTAATCTTTCTGTTCAAGCGCCATCTAC | 0.798 RPM ratio (pull-down/input) |

| Sequence | binding signal |
| --- | --- |
| GATGATTGTTCTCCCAGCTGATGAATTATGCAGATCGAGTAAACAAATTTTCCTAATCTTTCTGTTCAAGCGCCATCTAC | 1.04 RPM ratio (pull-down/input) |
| GATGATTGTTCTCCCAGCTGATGAATTTTTGTCCTCGAGTAAACAAATTTTCCTAATCTTTCTGTTCAAGCGCCATCTAC | 1.02 RPM ratio (pull-down/input) |
| GATGATTGTTCTCCCAGCTGATGAATTTGGCTTGTCGAGTAAACAAATTTTCCTAATCTTTCTGTTCAAGCGCCATCTAC | 0.962 RPM ratio (pull-down/input) |
| GATGATTGTTCTCCCAGCTGATGAATTGAATCGATCGAGTAAACAAATTTTCCTAATCTTTCTGTTCAAGCGCCATCTAC | 0.854 RPM ratio (pull-down/input) |
| GATGATTGTTCTCCCAGCTGATGAATTGACTAGATCGAGTAAACAAATTTTCCTAATCTTTCTGTTCAAGCGCCATCTAC | 0.992 RPM ratio (pull-down/input) |
| GATGATTGTTCTCCCAGCTGATGAATTTGCGGTCTCGAGTAAACAAATTTTCCTAATCTTTCTGTTCAAGCGCCATCTAC | 0.907 RPM ratio (pull-down/input) |
| GATGATTGTTCTCCCAGCTGATGAATTAACCACGTCGAGTAAACAAATTTTCCTAATCTTTCTGTTCAAGCGCCATCTAC | 0.884 RPM ratio (pull-down/input) |
| GATGATTGTTCTCCCAGCTGATGAATTATTAAGTTCGAGTAAACAAATTTTCCTAATCTTTCTGTTCAAGCGCCATCTAC | 1.15 RPM ratio (pull-down/input) |
| GATGATTGTTCTCCCAGCTGATGAATTTAGTCATTCGAGTAAACAAATTTTCCTAATCTTTCTGTTCAAGCGCCATCTAC | 1.02 RPM ratio (pull-down/input) |
| GATGATTGTTCTCCCAGCTGATGAATTCCATCACTCGAGTAAACAAATTTTCCTAATCTTTCTGTTCAAGCGCCATCTAC | 0.855 RPM ratio (pull-down/input) |
| GATGATTGTTCTCCCAGCTGATGAATTGGAGGATTCGAGTAAACAAATTTTCCTAATCTTTCTGTTCAAGCGCCATCTAC | 0.842 RPM ratio (pull-down/input) |
| GATGATTGTTCTCCCAGCTGATGAATTATGACAGTCGAGTAAACAAATTTTCCTAATCTTTCTGTTCAAGCGCCATCTAC | 0.946 RPM ratio (pull-down/input) |
| GATGATTGTTCTCCCAGCTGATGAATTTGGATGTTCGAGTAAACAAATTTTCCTAATCTTTCTGTTCAAGCGCCATCTAC | 0.997 RPM ratio (pull-down/input) |
| GATGATTGTTCTCCCAGCTGATGAATTTCTAAGATCGAGTAAACAAATTTTCCTAATCTTTCTGTTCAAGCGCCATCTAC | 0.869 RPM ratio (pull-down/input) |
| GATGATTGTTCTCCCAGCTGATGAATTTGTTCTTTCGAGTAAACAAATTTTCCTAATCTTTCTGTTCAAGCGCCATCTAC | 1.3 RPM ratio (pull-down/input) |
| GATGATTGTTCTCCCAGCTGATGAATTTATTACCTCGAGTAAACAAATTTTCCTAATCTTTCTGTTCAAGCGCCATCTAC | 1.2 RPM ratio (pull-down/input) |
